The structures appear in SMILES notation. Out of some 310,000 compounds screened, about 14,000 (4.5%) showed an effect of 50% or more. The effect is printed as a negative number. This is one part of the list.
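Also: peak tail current of the secondary pulse compared with the same well before compound.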

The test deals with human ether-à-go-go-related gene (hERG) potassium channel (human, UniProt Q12809). The test can be described thus: primary screen, population patch clamp on CHO cells stably expressing hERG.
Chain of human ether-à-go-go-related gene (hERG) potassium channel (Q12809 whole entry, looked up): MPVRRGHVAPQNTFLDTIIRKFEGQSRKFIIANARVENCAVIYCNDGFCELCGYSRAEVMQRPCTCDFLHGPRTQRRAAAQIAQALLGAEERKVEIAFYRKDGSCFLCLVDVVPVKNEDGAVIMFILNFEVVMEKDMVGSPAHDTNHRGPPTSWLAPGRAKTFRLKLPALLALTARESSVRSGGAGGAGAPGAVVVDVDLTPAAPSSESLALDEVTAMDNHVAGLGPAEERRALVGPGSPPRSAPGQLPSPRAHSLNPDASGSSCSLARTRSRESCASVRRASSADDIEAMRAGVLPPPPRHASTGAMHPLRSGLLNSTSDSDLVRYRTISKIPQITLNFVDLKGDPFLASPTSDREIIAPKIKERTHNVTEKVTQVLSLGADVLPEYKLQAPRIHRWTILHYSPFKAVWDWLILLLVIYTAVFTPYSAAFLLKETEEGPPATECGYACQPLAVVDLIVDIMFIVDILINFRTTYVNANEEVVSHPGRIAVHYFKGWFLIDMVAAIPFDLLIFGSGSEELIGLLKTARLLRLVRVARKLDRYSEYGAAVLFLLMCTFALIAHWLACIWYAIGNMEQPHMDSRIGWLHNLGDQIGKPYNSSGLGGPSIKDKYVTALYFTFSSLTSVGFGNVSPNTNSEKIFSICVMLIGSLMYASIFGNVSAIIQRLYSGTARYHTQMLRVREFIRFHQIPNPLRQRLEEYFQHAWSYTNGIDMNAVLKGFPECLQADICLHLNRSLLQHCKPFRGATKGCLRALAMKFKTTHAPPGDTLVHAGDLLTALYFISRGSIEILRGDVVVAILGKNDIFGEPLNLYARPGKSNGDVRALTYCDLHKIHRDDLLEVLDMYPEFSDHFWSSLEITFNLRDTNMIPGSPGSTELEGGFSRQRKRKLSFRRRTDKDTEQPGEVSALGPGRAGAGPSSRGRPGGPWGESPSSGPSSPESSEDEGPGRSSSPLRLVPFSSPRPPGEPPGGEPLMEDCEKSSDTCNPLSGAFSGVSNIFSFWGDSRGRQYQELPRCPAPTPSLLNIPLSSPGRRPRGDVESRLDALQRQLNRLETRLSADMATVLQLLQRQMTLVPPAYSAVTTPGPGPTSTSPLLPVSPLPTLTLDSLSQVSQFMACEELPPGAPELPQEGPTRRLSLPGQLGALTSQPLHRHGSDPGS
In the case of `O=C(NCCN1CCOCC1)NC1(C(F)(F)F)Oc2ccccc2O1`, the “hERG current change (%, negative = inhibition) at 10uM” value is listed as -3.53%.

Regarding `Cc1cccc(NC(=O)Nc2nnc(N3CCCCC3C)s2)c1C` (stereo not drawn), the “hERG current change (%, negative = inhibition) at 10uM” value came out at 15.8%. Under `CCOC(=O)C1(Cc2ccc(Cl)cc2)CCN(Cc2cn(CC)nc2C)CC1` stands -67.7%; under `CCS(=O)(=O)c1nc2ccccc2n1Cc1ccccc1Cl`, -8.8%; under `CC(OC(=O)CCc1ccccc1)C(=O)Nc1ncc(Cl)cc1Cl` (stereo not drawn), 4.35%. To `Cc1nn(-c2ccc([N+](=O)[O-])cc2)c2c1C(c1ccc(OC(F)F)cc1)N1C(=N2)C(=O)Nc2ccccc21` (stereo not drawn) belongs -4.16%; to `O=C(NCc1ccc2c(c1)OCO2)c1cccc([N+](=O)[O-])c1`, -15.8%; to `CC(Oc1ncnc2ccccc12)C(=O)Nc1cccc(S(=O)(=O)N2CCOCC2)c1` (stereo not drawn), -11.3%. Under `O=S(=O)(NCCCN1CCOCC1)c1ccc2c(c1)OCCO2` stands 24.4%. As to `CCN(CC)S(=O)(=O)c1ccc(OC)c(NS(=O)(=O)c2cccc(C(=O)O)c2)c1`, the “hERG current change (%, negative = inhibition) at 10uM” value was determined as 11.3%. For `COc1cccc(/C=C/C(=O)Nc2cccc(C(C)=O)c2)c1OC`, the “hERG current change (%, negative = inhibition) at 10uM” value is on record as 19.5%. Under `Cc1nn(C)cc1CNC(=O)c1cnn2c1NC(c1ccc(Br)cc1)CC2C(F)(F)F` (stereo not drawn) stands -20.3%; under `COc1ccc(Cn2c(-c3ccc(OC)cc3)nc3c(c(=O)c4ccccc4n3C)c2=O)cc1`, -11.4%. Under `COc1cc(OC)c(C2C(C#N)=C(N)Oc3cc(C)n(CCCN4CCOCC4)c(=O)c32)cc1OC` (stereo not drawn) stands -4.15%. To `Cc1cc(=O)n2[nH]c(COc3ccccc3)nc2n1` belongs -4.43%; to `COc1ccc(CNC(=O)CSc2nnnn2-c2ccc(O)cc2)cc1`, -11.2%; to `COc1ccc(CCNC(=O)CSc2nn(-c3ccccc3)c(=S)s2)cc1OC`, -16.5%. With `O=C(NCc1nc2ccccc2[nH]1)C1=C[C@@H](c2ccc(Br)cc2)C[C@@H](OCCCCO)O1`, the “hERG current change (%, negative = inhibition) at 10uM” value was -65.9%. To `CCCOC(=O)C1[C@H]2C(=O)N(CC3CCCO3)C[C@]23C=C[C@H]1O3` (stereo partly drawn) belongs 7.13%. Turning to `CC[N+](C)(C)CCN(Cc1ccc(Cl)cc1)c1ccccn1.[Br-]`, the “hERG current change (%, negative = inhibition) at 10uM” value was -68.6%. To `CC1=N/C(=C\c2ccccc2Cl)C(=O)O1` belongs 15%; to `Cc1cc(O)c(C(C)C)cc1NC(=O)c1ccc(Cl)cc1`, -0.0659%. To `COc1cc2c(cc1O)[C@@H]1Cc3cc(O)c(OC)cc3[C@H](C2)N1C` belongs 11.3%. To `CCOC(=O)C(=Cc1c[nH]c2ccc(S(=O)(=O)N(C)C)cc12)C(=O)OCC` belongs -25.3%; to `CCOC(=O)/C(C#N)=C\C=C1C=CN(C)C=C1`, 0.0919%. Consider `CC1Cc2nc(SCC(N)=O)n(Cc3ccccc3)c(=O)c2S1` (stereo not drawn), for which the “hERG current change (%, negative = inhibition) at 10uM” value is on record as -4.75%. To `COc1ccc(C2C(C(=O)c3ccccc3)=C(C)Nc3nc4ccccc4n32)cc1OC` (stereo not drawn) belongs -3.25%; to `COc1cccc(Oc2nc(-c3ccccc3O)nc3ccccc23)c1`, 7.57%. Under `NC(=O)NC(Cc1ccccc1)C(=O)NCCCSc1ccccc1` (stereo not drawn) stands 5.04%; under `CS(=O)(=O)Nc1nnc(C2CCCC2)s1`, 24%; under `CN(CC(=O)NCc1ccco1)S(=O)(=O)c1cccc2cccnc12`, -1.47%. To `CNC(=O)/C(=C\c1ccc([N+](=O)[O-])cc1)NC(C)=O` belongs -28.8%; to `Cc1cc(=O)[nH]c(N/N=C/c2ccccc2Cl)n1`, 12%; to `Cc1cccc(OC(C)C(=O)Nc2cc(Cl)ccc2-n2cncn2)c1` (stereo not drawn), -3.91%. As to `Cn1cc(S(=O)(=O)N2CCN(c3cccc(Cl)c3)CC2)c(=O)n(C)c1=O`, the “hERG current change (%, negative = inhibition) at 10uM” value was -4.88%. In the case of `O=c1[nH]c2ccc(NC(=S)Nc3ccccc3)cc2[nH]1`, the “hERG current change (%, negative = inhibition) at 10uM” value is -3.95%.

For the molecule `COc1ccccc1NC(=O)Oc1ccc(C(C)=O)cc1`, the “hERG current change (%, negative = inhibition) at 10uM” value was 13%. To `Cc1ccc(C)n1-c1cccc(S(=O)(=O)N2CCOCC2)c1` belongs 7.55%; to `CCCCNc1c([N+](=O)[O-])c(=O)n(C)c2ccccc12`, -9.14%.

Consider `COCCCNC(=O)c1cc(OC)c(OC)c(OC)c1`, for which the “hERG current change (%, negative = inhibition) at 10uM” value turned out to be 4.25%. Under `Cc1ccc(CNC(=O)c2cccc(-n3cnnn3)c2)cc1` stands -13.3%; under `CCc1ccc(-c2cc(C(F)(F)F)n3nc(C(=O)Nc4cnn(Cc5ccc(C)cc5)c4)cc3n2)s1`, -6.81%. On to `CCOc1ccc(N(CC(=O)NC(C)CC)S(C)(=O)=O)cc1` (stereo not drawn), for which the “hERG current change (%, negative = inhibition) at 10uM” value turned out to be 5.96%.

`O=C(Nc1ccc(F)cc1)c1nc[nH]c1C(=O)O`: the “hERG current change (%, negative = inhibition) at 10uM” value came out at 25.2%. For the molecule `CCNc1nc(NCC)n2c(SCC(=O)Nc3cc(OC)ccc3OC)nnc2n1`, the “hERG current change (%, negative = inhibition) at 10uM” value was found to be 9.07%.

Regarding `Cc1cc(C)n(C2CCCCC2OC(=O)CCc2ccccc2)n1` (stereo not drawn), the “hERG current change (%, negative = inhibition) at 10uM” value is listed as 3.86%. Under `CCCCCCNCc1cccc(Br)c1.Cl` stands -11.3%; under `C/C=C/c1ccc(OCCCNCC(C)O)c(OC)c1` (stereo not drawn), -29.2%.

For `CCOc1ccc(N(CC(=O)Nc2ccc(C)cc2)S(=O)(=O)c2c(C)[nH]c(=O)[nH]c2=O)cc1`, the “hERG current change (%, negative = inhibition) at 10uM” value is 12.8%. To `COc1ccccc1N1CCN(Cc2nnnn2CCc2ccccc2)CC1.Cl` belongs 8.3%; to `C/C(N)=C(/C#N)C(=O)CSc1nc2ccccc2c(=O)n1CCCO`, 8.08%; to `COc1cc(NC(=O)COc2ccc(Br)cc2)ccc1NC(=O)C(C)C`, 4.1%. To `Cc1ccc(-n2c(SCc3cn4ccsc4n3)nc3ccccc3c2=O)cc1` belongs 5.15%. To `CCCc1cc(C(=O)NCc2ccc(OC)cc2)no1` belongs -0.821%; to `COc1ccc(C(=O)CSc2ccc(-c3ccccc3)nn2)cc1`, -17.7%.

Consider `CCOc1ccc(-n2c(SCC(=O)Nc3cc(C)on3)nnc2-c2c[nH]c3ccccc23)cc1`, for which the “hERG current change (%, negative = inhibition) at 10uM” value was -2.22%. Under `CCCCCC(=O)Nc1cc(S(=O)(=O)N2CCOCC2)ccc1Oc1ccc(OCC)cc1` stands -19.7%.

(Values after paper PMC4336329 (PLoS ONE, 2015).)
